Measurements as given in PubChem BioAssay AID1460 (National Center for Advancing Translational Sciences (NCATS), 2008).
Hit rate of the full screen: of about 270,000 compounds, about 5,800 (2.1%) were called active. This list was built around the results that the source calls inconclusive (neither active nor inactive); the mix of calls is not that of the screen. The call rests on the fitted dose curve; in most records, active means well fitted inhibition curve with a large enough effect; inconclusive means small, poorly fitted or top-dose-only effect; inactive means flat fitted curve, though single readings scatter. Potencies beside an inconclusive call are fits to weak or partial responses and may not hold up. Some structures have more than one record in an assay (separate samples or runs), and their calls can disagree.
Further: nearly all actives have a fitted effect of over 55% in size.
On the % scale 0 is the no-effect control and ±100 the full control effect; potency means the concentration at half of the fitted maximal effect; tags describe the fitted curve by direction and shape.

Each molecule was assayed against Microtubule-associated protein tau (Homo sapiens) (UniProt P10636) (assay: qHTS for Inhibitors of Tau Fibril Formation, Thioflavin T Binding). Conditions: recombinant tau K18 P301L (four-repeat tau fragment), heparin-induced fibrillization, ThT fluorescence; series mostly up to 57.4 µM; activity, negative = inhibition: at the top concentration.
Sequence of UniProt P10636 (P10636 whole entry, looked up, the tested form may be a part): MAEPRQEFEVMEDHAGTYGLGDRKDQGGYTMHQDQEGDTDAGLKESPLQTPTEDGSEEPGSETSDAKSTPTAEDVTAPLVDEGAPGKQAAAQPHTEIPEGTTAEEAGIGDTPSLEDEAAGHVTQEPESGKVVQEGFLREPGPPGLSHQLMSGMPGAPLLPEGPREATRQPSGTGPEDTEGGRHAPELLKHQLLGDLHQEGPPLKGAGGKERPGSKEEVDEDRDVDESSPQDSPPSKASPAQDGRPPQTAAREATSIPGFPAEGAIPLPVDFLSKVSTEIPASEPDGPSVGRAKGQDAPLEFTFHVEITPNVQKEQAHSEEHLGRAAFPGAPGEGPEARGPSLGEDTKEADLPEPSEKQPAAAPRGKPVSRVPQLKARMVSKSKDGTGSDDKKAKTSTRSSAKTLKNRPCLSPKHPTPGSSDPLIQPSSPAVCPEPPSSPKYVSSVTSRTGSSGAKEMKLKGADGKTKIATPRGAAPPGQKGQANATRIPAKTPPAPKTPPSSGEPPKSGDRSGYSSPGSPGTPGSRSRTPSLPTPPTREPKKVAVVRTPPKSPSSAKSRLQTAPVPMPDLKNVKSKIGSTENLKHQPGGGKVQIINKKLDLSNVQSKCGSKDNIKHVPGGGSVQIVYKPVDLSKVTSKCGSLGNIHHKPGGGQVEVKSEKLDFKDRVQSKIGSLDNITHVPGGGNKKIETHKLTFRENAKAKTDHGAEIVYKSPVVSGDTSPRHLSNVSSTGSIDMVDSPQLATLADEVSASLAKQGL
Summary of the method: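 Aggregation was driven by heparin (20 uM final) acting on recombinant tau […] bearing P301L in 100 mM sodium acetate pH 7; fibrils were detected with Thioflavin T.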
`N#Cc1cc2c(=O)n3ccccc3nc2n(-c2ccccc2Cl)c1=O` was tested, and the “activity, negative = inhibition” value was inactive: -7.52%.
With `COc1ccc(-n2c(-c3cccc(F)c3)nc3c(cnn3-c3ccc(C)cc3)c2=O)cc1` the “activity, negative = inhibition” value was inactive: -10.7%.
For `Cc1ccc(-c2csc(-c3c(N)c(C(=O)c4ccc5c(c4)OCO5)n4ccccc34)n2)cc1`, the Potency was inconclusive: 3.55 µM [inhibitor, full curve].
`CCOC(=O)c1cnc2ccc(OC)cc2c1NCc1ccccc1` was tested, and the Potency was inconclusive: 39.8 µM [inhibitor, single point].
In the case of `COc1ccc(NC(=O)COc2ccc(/C=N/NC(=O)c3cccnc3)cc2OC)cc1`, the Potency is reported as inconclusive: 0.0501 µM [activator, full curve, poor fit].
`CCC(=O)N1CCN(c2ccc(NC(=O)c3ccc(C#N)cc3F)cc2Cl)CC1` was tested, and the Potency was inconclusive: 11.2 µM [inhibitor, partial curve, poor fit].
`CCCCc1nc2c(c3c1C[C@H](C)OC3)CN(C(=O)Cc1cccc(OC)c1)CC2` was tested, and the activity, negative = inhibition was inactive: -4.16% [at 11.5 µM].
With `Cc1ccc(-c2cn3nc(N4CCCC(C(=O)NCc5ccccc5F)C4)sc3n2)cc1` (configuration not stated) the Potency was inconclusive: 3.16 µM [inhibitor, full curve].
`O=C(N/N=C/c1ccc2c(c1)OCO2)c1ccc2ccccc2n1` was tested, and the Potency was inconclusive: 1.26 µM [inhibitor, full curve].
For `Nc1nc(CN2CCN(C(=O)c3ccco3)CC2)nc(Nc2cccc(Cl)c2)n1`, the Potency was inconclusive: 12.6 µM [inhibitor, partial curve].
In the case of `CC(CS(=O)(=O)c1cccc2cccnc12)N1CCCCC1` (configuration not stated), the Potency is reported as inconclusive: 35.5 µM [inhibitor, single point].
For `COc1ccc2oc(C(=O)c3ccccc3)c(N)c2c1`, the Potency was inconclusive: 10 µM [inhibitor, partial curve].
For `COc1ccc2cc3cc(C(=O)Nc4ccc5c(c4)OCCO5)oc3nc2c1`, the Potency was inconclusive: 0.891 µM [inhibitor, full curve].
For `Cc1cc(C(=O)N/N=C/c2ccc3c(c2)OCO3)c(C)o1`, the Potency was inconclusive: 28.2 µM [inhibitor, partial curve].
In the case of `COc1ccc(C(=O)c2cn(CC(=O)Nc3cc(OC)cc(OC)c3)c3ccc(OC)cc3c2=O)cc1`, the “activity, negative = inhibition” value is reported as inactive: 11%.
For `COc1cccc(N2CCN(Cc3nc(N)nc(Nc4ccccc4)n3)CC2)c1`, the Potency was inconclusive: 14.1 µM [inhibitor, partial curve].
For `COc1cc(NC2c3ccccc3C(=O)N2Cc2ccccc2Cl)cc(OC)c1` (configuration not stated), the Potency was inconclusive: 44.7 µM [inhibitor, single point].
For `CC(C)Nc1nnc(SCc2cc(=O)n3ccsc3n2)s1`, the “activity, negative = inhibition” value was inactive: -8.13%.
`CN(c1ccc(OCC(=O)OCC(=O)Nc2ccc(Br)cc2)cc1)S(=O)(=O)c1cccs1` was tested, and the “activity, negative = inhibition” value was inactive: -7.35%.
`Cc1ccc(-n2ncc(C(=O)N3CCc4ccccc4C3)c2NC(=O)c2ccco2)cc1C` was tested, and the “activity, negative = inhibition” value was inactive: -2.81%.
In the case of `Cc1c(C(=O)c2ccc(Cl)cc2Cl)cnc2cc3c(cc12)OCO3`, the Potency is reported as inconclusive: 39.8 µM [inhibitor, single point].
For `CSC1=C(C#N)C(c2ccccc2Cl)C(C(C)=O)=C(C)N1` (configuration not stated), the “activity, negative = inhibition” value was inactive: -1.22%.
`O=S(=O)(Nc1ccc2ccccc2n1)c1ccc2c(c1)CCO2` was tested, and the “activity, negative = inhibition” value was inactive: -13.6%.
In the case of `Cc1cc(OCC(=O)Nc2ccncc2)c(C)cc1Br`, the Potency is reported as inconclusive: 35.5 µM [inhibitor, partial curve, poor fit].
In the case of `CCCCn1c(SCC(=O)N2CCC(C)CC2)nc2cc(S(N)(=O)=O)ccc21`, the “activity, negative = inhibition” value is reported as inactive: -4.26%.
`CCOC(=O)CNC(=O)N1CCN(S(=O)(=O)c2ccc3c(ccn3C)c2)CC1` was tested, and the “activity, negative = inhibition” value was inactive: 6.23%.
For `CCN(CC)c1ccc(/C=N/N(c2ccccc2)c2ccccc2)c(O)c1`, the Potency was inconclusive: 14.1 µM [inhibitor, partial curve].
`COc1ccc(N2CC(NC(=O)C3CCCCC3)CC2=O)cc1` (configuration not stated) was tested, and the “activity, negative = inhibition” value was inactive: -4.68%.
In the case of `CCOc1ccc(C(=O)O/N=C(\N)c2ccc([N+](=O)[O-])cc2)cc1OCC`, the Potency is reported as inconclusive: 2.24 µM [inhibitor, full curve].
For `CCn1c(SCC(=O)Nc2cc(C)ccc2F)nnc1-c1ccccc1O`, the “activity, negative = inhibition” value was inactive: 0.381%.
With `CN1/C(=C\C(=O)c2cccs2)C(C)(C)c2ccccc21` the Potency was inconclusive: 15.8 µM [inhibitor, partial curve].
`CCN(CC)CCCC(C)n1c(-c2ccccc2)nc2c(NCCO)nc(C)nc21` (configuration not stated) was tested, and the “activity, negative = inhibition” value was inactive: -11.6%.
With `S=c1nc(-c2csc3c2CCCC3)[nH][nH]1` the “activity, negative = inhibition” value was inactive: -16.2%.
`CCOC(=O)N1CCN(S(=O)(=O)c2ccc(Br)s2)CC1` was tested, and the “activity, negative = inhibition” value was inactive: -0.974%.
`Oc1ccc(Br)cc1C=Nc1cccn2cc(-c3ccccc3)nc12` was tested, and the Potency was inconclusive: 12.6 µM [inhibitor, partial curve].
For `COc1cc(NC(=O)COC(=O)Cc2ccc(-c3ccccc3)cc2)cc(OC)c1`, the “activity, negative = inhibition” value was inactive: 12.2%.
In the case of `COC(=O)c1ccc(NC(=O)Cn2c(=O)oc3ccccc32)cc1`, the “activity, negative = inhibition” value is reported as inactive: -3.46%.
In the case of `Cc1nc2ccn(Cc3ccco3)c(=O)c2cc1C(=O)NCc1ccc(Cl)cc1`, the Potency is reported as inconclusive: 35.5 µM [inhibitor, single point].
For `O=C(CSc1n[nH]c(-c2ccc(F)cc2)n1)N1CCN(c2ccc(F)cc2)CC1`, the Potency was inconclusive: 10 µM [inhibitor, partial curve].
`CCOC(=O)c1cc(S(=O)(=O)Nc2ccccc2)[nH]n1` was tested, and the “activity, negative = inhibition” value was inactive: 7.08%.
For `O=C1CCCc2oc3c(cc(NS(=O)(=O)c4ccc5c6c(cccc46)C(=O)N5)c4ccccc43)c21`, the Potency was inconclusive: 11.2 µM [inhibitor, partial curve].
`C=CCSC1=C(C#N)C(c2cc(Br)c(O)c(OC)c2)CC(=O)N1` (configuration not stated) was tested, and the Potency was inconclusive: 31.6 µM [inhibitor, single point].
In the case of `Cc1ccc(C(=O)COC(=O)c2cc(Cl)nc3ccccc23)cc1C`, the Potency is reported as inconclusive: 2.51 µM [inhibitor, full curve].
For `COC(=O)c1cc(NC(=O)c2ccccc2)c(=O)oc1/C=C/Nc1ccc(Oc2ccccc2)cc1`, the Potency was inconclusive: 25.1 µM [inhibitor, single point].
In the case of `CC(=O)Nc1ccc(NC(=O)/C=C/c2ccccc2)cc1`, the “activity, negative = inhibition” value is reported as inactive: -11.9%.
In the case of `Cn1c(CCc2ccccc2)n[nH]c1=S`, the “activity, negative = inhibition” value is reported as inactive: 1.29%.
In the case of `Cn1c(N)c(C#N)c2c(c1=S)CSC(C)(C)C2`, the Potency is reported as inconclusive: 31.6 µM [inhibitor, single point].
With `COC(=O)c1ccccc1NC(=O)c1ccc(CN2CC(=O)N3CCCCC3C2=O)cc1` (configuration not stated) the “activity, negative = inhibition” value was inactive: -9.04%.
`O=C(/C=C/c1ccccc1[N+](=O)[O-])Nc1cccnc1` was tested, and the Potency was inconclusive: 14.1 µM [inhibitor, partial curve].
With `CCCCC1NC(C(=O)O)CS1` (configuration not stated) the “activity, negative = inhibition” value was inactive: -1.42%.
In the case of `Cc1ccc(-n2c(C)cc(C(=O)CSc3nnnn3C)c2C)cc1`, the “activity, negative = inhibition” value is reported as inactive: -15.7%.
In the case of `CCOC(=O)c1c(-c2ccc(OC)cc2)csc1/N=C/C1=C(O)CCCC1=O`, the Potency is reported as inconclusive: 31.6 µM [inhibitor, single point].
`COc1ccc(C2=NC(c3ccccc3)=Nc3ccc(C)cc3N2)cc1` was tested, and the Potency was inconclusive: 12.6 µM [inhibitor, partial curve].
For `CCc1ccc(CNC(=O)C2CCN(c3nn4cc(-c5ccc(OC)cc5)nc4s3)CC2)cc1`, the Potency was inconclusive: 1.26 µM [inhibitor, full curve].
For `CC(O)[C@@H](O)[C@H]1CNc2nc(N)[nH]c(=O)c2N1` (some centres not stated), the Potency was inconclusive: 28.2 µM [inhibitor, single point].
With `O=C(CCCN1C(=O)/C(=C/c2ccco2)SC1=S)Nc1ccccc1C(=O)O` the Potency was inconclusive: 28.2 µM [inhibitor, partial curve].
For `COc1ccc2nc(NC(=O)CSc3nc4cccnc4n3C)sc2c1`, the Potency was inconclusive: 2.51 µM [inhibitor, full curve, poor fit].
In the case of `O=C(Nc1ccc(NC(=O)c2ccco2)cc1)c1cnccn1`, the Potency is reported as inconclusive: 14.1 µM [inhibitor, partial curve].
With `Cc1ccc(Nc2ncccc2C(=O)NCc2cccs2)c(C)c1` the Potency was inconclusive: 17.8 µM [inhibitor, partial curve].
In the case of `CCn1c(CN2CCN(C)CC2)nc2cc(NC(=O)c3ccc([N+](=O)[O-])cc3)ccc21`, the Potency is reported as inconclusive: 39.8 µM [inhibitor, single point].
In the case of `CCOC(=O)C(C)Sc1nnc(NC(=O)c2ccc(C)c([N+](=O)[O-])c2)s1` (configuration not stated), the Potency is reported as inconclusive: 15.8 µM [inhibitor, partial curve].
`Cc1cc(-c2csc(N)n2)c(C)n1-c1ccccc1` was tested, and the Potency was inconclusive: 15.8 µM [inhibitor, partial curve].
In the case of `CC(C)Oc1ccc(CNC(=O)C2=Cc3ccccc3OC2)cc1`, the “activity, negative = inhibition” value is reported as inactive: -3.91%.
In the case of `CCOc1ccc(Nc2nc3ccccc3n3cnnc23)cc1`, the Potency is reported as inconclusive: 20 µM [inhibitor, partial curve].
With `COc1ccc(C(=O)c2cn(CC(=O)Nc3cc(C)ccc3C)c3nc(C)ccc3c2=O)cc1` the Potency was inconclusive: 39.8 µM [inhibitor, single point].
`CCOCCCN(Cc1ccco1)C(=O)c1cc2c(s1)-c1c(C)cccc1OC2` was tested, and the Potency was inconclusive: 12.6 µM [inhibitor, partial curve].
With `CC(C)(C)OC(=O)NCC12C=CC(O1)C1C(=O)N(Cc3ccccc3)C(=O)C12` (configuration not stated) the “activity, negative = inhibition” value was inactive: -19.7%.
`CC(C)CN1C(=O)c2ccc(NC(=O)c3cccs3)cc2C1=O` was tested, and the “activity, negative = inhibition” value was inactive: -9.77%.
For `CCOc1ccccc1N1CSC2=C(C#N)C(c3c(OC)ccc4ccccc34)CC(=O)N2C1` (configuration not stated), the Potency was active: 3.98 µM.
With `COC(=O)CCC(=O)OC1(C)C(=O)C2=CN(CC(C)C)C(c3ccc(OC)cc3)=CC2=C(Br)C1=O` (configuration not stated) the Potency was active: 10 µM.
For `COc1ccc(OC)c(NC(=O)c2nc(S(=O)(=O)Cc3ccc(F)cc3)ncc2Cl)c1`, the Potency was active: 12.6 µM.
`CCOC(=O)N[C@H](Cc1c[nH]c2ccccc12)C(=O)Nc1cccc(Cl)c1` was tested, and the “activity, negative = inhibition” value was inactive: 4.69%.
